In the BET-seq Pho4 binding data (Le et al. 2018):
The other results are listed elsewhere or left out. Values were computed here from the reads of four pooled replicates and scatter widely.

Target: T1, Pho4 (S. cerevisiae) (UniProt P07270)
T1 sequence: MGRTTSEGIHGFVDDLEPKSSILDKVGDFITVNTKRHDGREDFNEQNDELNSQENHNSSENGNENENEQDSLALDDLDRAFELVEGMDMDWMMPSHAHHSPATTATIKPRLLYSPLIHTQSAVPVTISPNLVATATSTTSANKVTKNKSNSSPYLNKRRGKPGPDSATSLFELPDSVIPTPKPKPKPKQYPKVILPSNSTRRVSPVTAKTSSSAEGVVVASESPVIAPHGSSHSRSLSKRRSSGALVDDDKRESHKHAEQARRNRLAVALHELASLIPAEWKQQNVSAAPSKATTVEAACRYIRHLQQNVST
Assay: relative binding free energy (BET-seq); higher = weaker binding
Conditions: reference: library average

| Sequence | relative binding free energy |
| --- | --- |
| GGTGGCACGTGAGTAT | 0.13 kcal/mol |
| TATGGCACGTGTGCGA | -0.2 kcal/mol |
| AGTGGCACGTGGCTAT | -0.17 kcal/mol |
| TGGTCCACGTGTAGGT | 0.03 kcal/mol |
| GTCGGCACGTGGGATA | -0.03 kcal/mol |
| TCGTTCACGTGCATGT | 0.25 kcal/mol |
| GAGTTCACGTGGAGTG | 0.34 kcal/mol |
| GATTTCACGTGTCCGG | 0.42 kcal/mol |
| TCTTACACGTGATTGG | 0.2 kcal/mol |
| GGGGTCACGTGACTGT | 0.21 kcal/mol |
| AGGTGCACGTGCTTGG | -0.01 kcal/mol |
| ATGTTCACGTGAAGAA | 0.51 kcal/mol |
| GTGGTCACGTGACGTA | 0.4 kcal/mol |
| GAGTTCACGTGGAGTT | 0.38 kcal/mol |
| GGTTACACGTGACTGG | 0.36 kcal/mol |
| AGTACCACGTGTTTTT | -0.02 kcal/mol |
| GTGCTCACGTGTTGGC | 0.31 kcal/mol |
| TTAGACACGTGCTTGT | -0.16 kcal/mol |
| GTCGGCACGTGGTGGC | 0 kcal/mol |
| GAAGACACGTGTTAGG | 0.11 kcal/mol |
| TAAGGCACGTGCAAGT | -0.01 kcal/mol |
| GGGTGCACGTGATTAT | 0.16 kcal/mol |
| CGTGGCACGTGGTGCT | -0.3 kcal/mol |

| Sequence | relative binding free energy |
| --- | --- |
| ATCGTCACGTGGGGTG | -0.2 kcal/mol |
| AGATCCACGTGGGGTG | -0.17 kcal/mol |
| AGTTTCACGTGGTTCG | 0.22 kcal/mol |
| TATTTCACGTGGCTGA | 0.23 kcal/mol |
| TTGATCACGTGGGACT | 0.14 kcal/mol |
| AGGAGCACGTGGTCGG | -0.21 kcal/mol |
| AGGTGCACGTGAGCTT | 0.18 kcal/mol |
| GATTTCACGTGACTTT | 0.45 kcal/mol |
| ACGGCCACGTGGTGGT | -0.16 kcal/mol |
| CTTGTCACGTGACGTT | 0.22 kcal/mol |
| TTTGCCACGTGTAGGA | -0.05 kcal/mol |
| CGTATCACGTGGTGGA | 0 kcal/mol |
| TTGGTCACGTGATCTT | 0.2 kcal/mol |
| TATTTCACGTGGGGCT | 0.18 kcal/mol |
| CGGTTCACGTGAGGGC | 0.4 kcal/mol |
| TAGCACACGTGAGGTT | 0.34 kcal/mol |
| TGTTACACGTGTGGCT | 0.25 kcal/mol |
| AGAAGCACGTGTCGGG | 0 kcal/mol |
| TGATGCACGTGTGTGG | -0.03 kcal/mol |
| AAGTACACGTGAATGA | 0.37 kcal/mol |
| TAGTTCACGTGTCGTT | 0.4 kcal/mol |
| TGGGTCACGTGAAAGT | 0.34 kcal/mol |
| TTATACACGTGAGTTC | 0.26 kcal/mol |

| Sequence | relative binding free energy |
| --- | --- |
| ATGATCACGTGATCGT | 0.2 kcal/mol |
| GTTATCACGTGTTGGC | 0.19 kcal/mol |
| TGCCTCACGTGGGGGG | -0.03 kcal/mol |
| AGGGCCACGTGAGGAA | 0.18 kcal/mol |
| CGTAGCACGTGTTTGG | -0.03 kcal/mol |
| TTGTGCACGTGTTGAT | 0.02 kcal/mol |
| TTAAGCACGTGCTGTT | -0.13 kcal/mol |
| TATATCACGTGTTCAT | 0.08 kcal/mol |
| AAATTCACGTGGAGTT | 0.2 kcal/mol |
| ATGGGCACGTGTATGA | -0.04 kcal/mol |
| GTTATCACGTGGACAG | 0.2 kcal/mol |
| CATATCACGTGTGGTT | 0.15 kcal/mol |
| TAGAACACGTGTGGTT | -0.05 kcal/mol |
| AGGGGCACGTGTGGAG | -0.05 kcal/mol |
| CTTCGCACGTGGGGCG | -0.12 kcal/mol |
| AGTATCACGTGATAGT | 0.14 kcal/mol |
| CGTGGCACGTGGAGCA | -0.15 kcal/mol |
| CGATACACGTGTGGTG | 0.05 kcal/mol |
| TATCTCACGTGTTTGA | 0.25 kcal/mol |
| GGGATCACGTGTAGGA | 0.16 kcal/mol |
| GTGTGCACGTGGTGGT | 0.05 kcal/mol |
| GTGTGCACGTGTCTTC | 0.06 kcal/mol |
| TTATACACGTGTGAAT | 0.22 kcal/mol |

| Sequence | relative binding free energy |
| --- | --- |
| AGTAGCACGTGGCGGC | -0.27 kcal/mol |
| GGATACACGTGTTGGT | 0.1 kcal/mol |
| TATCGCACGTGTTTAG | -0.13 kcal/mol |
| TGGAGCACGTGGTGAC | -0.13 kcal/mol |
| AGGTACACGTGTGGAT | 0.07 kcal/mol |
| GATTTCACGTGATCGT | 0.5 kcal/mol |
| GTGGGCACGTGCTGGG | -0.15 kcal/mol |
| TCTGGCACGTGATGGG | -0.04 kcal/mol |
| TTGTGCACGTGCTTTG | -0.18 kcal/mol |
| GGTAGCACGTGAAGTA | 0.16 kcal/mol |
| GGTTACACGTGTTGGG | 0.17 kcal/mol |
| TGTTACACGTGAAGCG | 0.28 kcal/mol |
| ATGTACACGTGTATAT | 0.04 kcal/mol |
| TTATTCACGTGGAGCT | 0.27 kcal/mol |
| AACTGCACGTGGTGTT | -0.14 kcal/mol |
| TGGTTCACGTGCTTGG | 0.25 kcal/mol |
| TTTTACACGTGGTCGC | 0.08 kcal/mol |
| TTGTACACGTGGGACA | -0.03 kcal/mol |
| CGGTTCACGTGATTAT | 0.24 kcal/mol |
| GTTACCACGTGAGTTA | 0.25 kcal/mol |
| GAAAGCACGTGTTATT | 0.21 kcal/mol |
| TCTTGCACGTGTTTAA | 0.08 kcal/mol |
| ATTTGCACGTGAGTTC | 0.25 kcal/mol |

| Sequence | relative binding free energy |
| --- | --- |
| TCTTGCACGTGCGGGA | 0.08 kcal/mol |
| AGGATCACGTGGAATT | 0.36 kcal/mol |
| ATCAGCACGTGTAGGG | -0.18 kcal/mol |
| AGAAGCACGTGGGCGA | -0.12 kcal/mol |
| ACTATCACGTGTTATT | 0.13 kcal/mol |
| AGATTCACGTGCTGGT | 0.11 kcal/mol |
| TGCGTCACGTGTGGCG | 0.17 kcal/mol |
| GTTTGCACGTGGTGGT | 0.03 kcal/mol |
| TTTGTCACGTGGAGTA | 0.08 kcal/mol |
| TGAATCACGTGATGGC | 0.18 kcal/mol |
| TTAGGCACGTGTTCCT | 0.02 kcal/mol |
| GGGGCCACGTGTTTTA | 0.03 kcal/mol |
| ATAAGCACGTGCGTTG | -0.28 kcal/mol |
| GTTTACACGTGCTGTT | 0.15 kcal/mol |
| TGTTTCACGTGAACGT | 0.33 kcal/mol |
| AATTTCACGTGATTAT | 0.26 kcal/mol |
| TGATTCACGTGGCGGG | 0.26 kcal/mol |
| AGAGTCACGTGTGAAG | 0.15 kcal/mol |
| ATATTCACGTGGAAGT | 0.31 kcal/mol |
| TTCAGCACGTGGGGTA | -0.19 kcal/mol |
| ATCTGCACGTGGGAAG | 0.05 kcal/mol |
| GATATCACGTGGTGGA | 0.07 kcal/mol |
| TGTGACACGTGGTTTT | 0.17 kcal/mol |
